From the supplement of paper PMC11876631
Changes are numbered by the printed parent chain. Numbers in names are those of the source. ± gives the standard deviation of the averaged measurements. Laboratory Escherichia coli strains with one amino-acid change in an essential protein, pooled on minimal glucose agar with carbenicillin or gentamicin at twice the control MIC (plus kanamycin and chloramphenicol for the plasmids), 48 h. Fold change of barcode share against drug-free plates; higher = less susceptible. Active = above 20 in both replicates (the paper's putatively resistant). '<' = one read or none on drug, '>' = one read or none on a drug-free plate. Shares are relative, so most strains fall below 1 when a few take over. Listed are strains with at least 15 reads on both drug-free plates, and hits; most hits rest on fewer reference reads. Replicate rank correlation about 0.5. Edits are read from barcodes.

B1: adk F109P (protein)
chain: MRIILLGAPGAGKGTQAQFIMEKYGIPQISTGDMLRAAVKSGSELGKQAKDIMDAGKLVTDELVIALVKERIAQEDCRNGFLLDGFPRTIPQADAMKEAGINVDYVLEPDVPDELIVDRIVGRRVHAPSGRVYHVKFNPPKVEGKDDVTGEELTTRKDDQEETVRKRLVEYHQMTAPLIGYYSKEAEAGNTKYAKVDGTKPVAEVRADLEKILG
B2: eno L112A (protein)
chain: MSKIVKIIGREIIDSRGNPTVEAEVHLEGGFVGMAAAPSGASTGSREALELRDGDKSRFLGKGVTKAVAAVNGPIAQALIGKDAKDQAGIDKIMIDLDGTENKSKFGANAIAAVSLANAKAAAAAKGMPLYEHIAELNGTPGKYSMPVPMMNIINGGEHADNNVDIQEFMIQPVGAKTVKEAIRMGSEVFHHLAKVLKAKGMNTAVGDEGGYAPNLGSNAEALAVIAEAVKAAGYELGKDITLAMDCAASEFYKDGKYVLAGEGNKAFTSEEFTHFLEELTKQYPIVSIEDGLDESDWDGFAYQTKVLGDKIQLVGDDLFVTNTKILKEGIEKGIANSILIKFNQIGSLTETLAAIKMAKDAGYTAVISHRSGETEDATIADLAVGTAAGQIKTGSMSRSDRVAKYNQLIRIEEALGEKAPYNGRKEIKGQA
B3: eno L112D (protein)
chain: B2 chain with A112D
B4: eno V114A (protein)
chain: B2 chain with A112L, V114A
B5: eno V114Q (protein)
chain: B2 chain with A112L, V114Q
B6: eno V114P (protein)
chain: B2 chain with A112L, V114P

Molecular target: Escherichia coli (laboratory strain)
Test: barcode share on antibiotic plates over drug-free plates; higher = less susceptible
Protocol: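 A pool of E. coli strains, each edited to carry one amino-acid change in an essential protein, was grown for 48 h on minimal glucose agar with or without antibiotic; strain barcodes were sequenced; mean of two replicates.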

[1] = antibiotic: carbenicillin, 2× MIC (3.1 µg/mL)
[2] = antibiotic: gentamicin, 2× MIC (MIC 0.45 µg/mL)

Protein	fold change of barcode share [1]	fold change of barcode share [2]
B1	2.77 ± 2.2	
B2	0.612 ± 0.22	0.0187 ± 0.013
B3	0.593 ± 0.096	0.112 ± 0.14
B4	0.167 ± 0.046	< 0.00674
B5	0.883 ± 0.31	
B6	0.32 ± 0.039	0.0206 ± 0.02
